The results in this text go back to the GPR68 mutational scans of Howard et al. (2025).

Scores whose standard error is large were omitted. The source holds two more conditions with little spread; they are left out. Names with del lack the residues named; names with ins carry added residues between the positions named. For part of these data: How much ogerin was present is not stated here.

First the molecules themselves.
B1: GPR68, Q15743 (parent)
chain: MGNITADNSSMSCTIDHTIHQTLAPVVYVTVLVVGFPANCLSLYFGYLQIKARNELGVYLCNLTVADLFYICSLPFWLQYVLQHDNWSHGDLSCQVCGILLYENIYISVGFLCCISVDRYLAVAHPFRFHQFRTLKAAVGVSVVIWAKELLTSIYFLMHEEVIEDENQHRVCFEHYPIQAWQRAINYYRFLVGFLFPICLLLASYQGILRAVRRSHGTQKSRKDQIQRLVLSTVVIFLACFLPYHVLLLVRSVWEASCDFAKGVFNAYHFSLLLTSFNCVADPVLYCFVSETTHRDLARLRGACLAFLTCSRTGRAREAYPLGAPEASGKSGAQGEEPELLTKLHPAFQTPNSPGSGGFPTGRLA

Data set [1] covers variants of B1. The data set can be described thus: cAMP reporter score (Enrich2 score, wild type = 0); higher = more signal; HEK293T, FACS bins.
Data set [2] covers variants of B1. The data set can be described thus: surface expression score (Enrich2 score, wild type = 0); higher = more signal; HEK293T, FACS bins.

V264S: the cAMP reporter score is 0.048 in data set [1] (pH 5.5); -1.04 in data set [1] (pH 6); 0.393 in data set [1] (pH 6, modulator: ogerin); -0.113 in data set [1] (pH 6.5, modulator: ogerin). Also, the surface expression score in data set [2] was -0.2.

With V264P, the cAMP reporter score is -1.47 in data set [1] (pH 5.5); -0.88 in data set [1] (pH 6); -1.8 in data set [1] (pH 6, modulator: ogerin); -1.41 in data set [1] (pH 6.5, modulator: ogerin). The surface expression score in data set [2] was -2.06.

As to V264K, the cAMP reporter score in data set [1] (pH 5.5) was -0.407; in data set [1] (pH 6), -1.5; in data set [1] (pH 6, modulator: ogerin), -1.63; in data set [1] (pH 6.5, modulator: ogerin), -1.1. Besides, the surface expression score in data set [2] is -1.9.

In the case of V264W, the cAMP reporter score in data set [1] (pH 5.5) was -0.009; in data set [1] (pH 6), -0.59; in data set [1] (pH 6, modulator: ogerin), -0.321; in data set [1] (pH 6.5, modulator: ogerin), -0.943. For the same variant, the surface expression score in data set [2] was -0.042.

With V264H, the cAMP reporter score is -0.936 in data set [1] (pH 5.5); -1.57 in data set [1] (pH 6); -0.583 in data set [1] (pH 6, modulator: ogerin); -1.51 in data set [1] (pH 6.5, modulator: ogerin). The surface expression score in data set [2] was -1.89.

Regarding V264T, the cAMP reporter score in data set [1] (pH 5.5) is 0.655; in data set [1] (pH 6), -0.437; in data set [1] (pH 6, modulator: ogerin), 0.231; in data set [1] (pH 6.5, modulator: ogerin), -0.492. Moreover, the surface expression score in data set [2] came to 0.501.

Regarding V264G, the cAMP reporter score is -0.748 in data set [1] (pH 5.5); -1.07 in data set [1] (pH 6); -0.832 in data set [1] (pH 6, modulator: ogerin); -1.66 in data set [1] (pH 6.5, modulator: ogerin). In data set [2], the surface expression score was -1.71.

For the variant V264A, the cAMP reporter score was 0.322 in data set [1] (pH 5.5); -0.853 in data set [1] (pH 6); -0.297 in data set [1] (pH 6, modulator: ogerin); -2.06 in data set [1] (pH 6.5, modulator: ogerin). For the same variant, in data set [2], the surface expression score was 0.051.

Regarding V264F, the cAMP reporter score in data set [1] (pH 5.5) was -0.215; in data set [1] (pH 6), -0.738; in data set [1] (pH 6, modulator: ogerin), -1.03; in data set [1] (pH 6.5, modulator: ogerin), -0.906. Also, in data set [2], the surface expression score worked out at 0.17.

Turning to V264Y, the cAMP reporter score in data set [1] (pH 5.5) is 0.456; in data set [1] (pH 6) it was 0.446; in data set [1] (pH 6, modulator: ogerin), 0.218; in data set [1] (pH 6.5, modulator: ogerin) it was -0.266. The surface expression score in data set [2] is -0.008.

In the case of V264L, the cAMP reporter score in data set [1] (pH 5.5) is 0.121; in data set [1] (pH 6) it was -0.511; in data set [1] (pH 6, modulator: ogerin) it was -0.038; in data set [1] (pH 6.5, modulator: ogerin), -0.912. Also, the surface expression score in data set [2] came to 0.498.

Turning to V264C, the cAMP reporter score in data set [1] (pH 5.5) is -0.366; in data set [1] (pH 6) it was -0.327; in data set [1] (pH 6, modulator: ogerin), -0.262; in data set [1] (pH 6.5, modulator: ogerin) it was 0.329. The surface expression score in data set [2] was -0.782.

In the case of V264Q, the cAMP reporter score was -0.627 in data set [1] (pH 5.5); 0.115 in data set [1] (pH 6); -0.022 in data set [1] (pH 6, modulator: ogerin); -0.797 in data set [1] (pH 6.5, modulator: ogerin). The surface expression score in data set [2] is -1.66.

As for V264E, the cAMP reporter score in data set [1] (pH 5.5) was -1.48; in data set [1] (pH 6), -1.86; in data set [1] (pH 6, modulator: ogerin) it was -0.728; in data set [1] (pH 6.5, modulator: ogerin) it was -1.2. Also, in data set [2], the surface expression score was -1.23.

In the case of V264R, the cAMP reporter score in data set [1] (pH 5.5) was -1.39; in data set [1] (pH 6) it was -1.56; in data set [1] (pH 6, modulator: ogerin), -2.32; in data set [1] (pH 6.5, modulator: ogerin), -1.61. Besides, the surface expression score in data set [2] is -2.95.

Consider V264I, for which the cAMP reporter score was 0.851 in data set [1] (pH 5.5); 0.819 in data set [1] (pH 6); 1.07 in data set [1] (pH 6, modulator: ogerin); 0.96 in data set [1] (pH 6.5, modulator: ogerin). Besides, the surface expression score in data set [2] was determined as 1.4.

V264D: the cAMP reporter score in data set [1] (pH 5.5) was -1.38; in data set [1] (pH 6), -0.972; in data set [1] (pH 6, modulator: ogerin), -1.61; in data set [1] (pH 6.5, modulator: ogerin) it was -1.18. Moreover, the surface expression score in data set [2] is -2.5.

V264M: the cAMP reporter score worked out at 1.68 in data set [1] (pH 5.5); 3.85 in data set [1] (pH 6); 2.1 in data set [1] (pH 6, modulator: ogerin); 3.25 in data set [1] (pH 6.5, modulator: ogerin). For the same variant, in data set [2], the surface expression score stood at 1.61.

With C279_V280insGSG, the cAMP reporter score in data set [1] (pH 5.5) is -1.4; in data set [1] (pH 6) it was -0.447; in data set [1] (pH 6, modulator: ogerin), -1.42; in data set [1] (pH 6.5, modulator: ogerin), -0.992. Further, the surface expression score in data set [2] is -1.83.

Consider H269_S271del, for which the cAMP reporter score was -2.1 in data set [1] (pH 5.5); -0.514 in data set [1] (pH 6); -1.57 in data set [1] (pH 6, modulator: ogerin); -1.42 in data set [1] (pH 6.5, modulator: ogerin). Further, the surface expression score in data set [2] is -1.67.

For the variant F265_N266insG, the cAMP reporter score in data set [1] (pH 5.5) is 0.877; in data set [1] (pH 6), -0.196; in data set [1] (pH 6, modulator: ogerin) it was 0.28; in data set [1] (pH 6.5, modulator: ogerin), -0.425. Besides, the surface expression score in data set [2] amounted to 0.585.

D259_F260insGSG: the cAMP reporter score in data set [1] (pH 5.5) was -1.19; in data set [1] (pH 6), -0.377; in data set [1] (pH 6, modulator: ogerin) it was -1.14; in data set [1] (pH 6.5, modulator: ogerin), -0.895. In addition, in data set [2], the surface expression score came out at 1.32.

Take A267_H269del: the cAMP reporter score in data set [1] (pH 5.5) is -0.958; in data set [1] (pH 6, modulator: ogerin), -1.36; in data set [1] (pH 6.5, modulator: ogerin), -0.492. For the same variant, the surface expression score in data set [2] was -2.88.

Take A281_D282insGS: the cAMP reporter score in data set [1] (pH 5.5) was -1.53; in data set [1] (pH 6), -1.26; in data set [1] (pH 6, modulator: ogerin), -1.83; in data set [1] (pH 6.5, modulator: ogerin), -1.37. The surface expression score in data set [2] was -1.81.

Consider A267W, for which the cAMP reporter score stood at 0.948 in data set [1] (pH 5.5); 0.917 in data set [1] (pH 6); 1.5 in data set [1] (pH 6, modulator: ogerin); 1.4 in data set [1] (pH 6.5, modulator: ogerin). For the same variant, in data set [2], the surface expression score amounted to 2.11.

For the variant A267L, the cAMP reporter score in data set [1] (pH 5.5) is -0.732; in data set [1] (pH 6, modulator: ogerin) it was -0.756; in data set [1] (pH 6.5, modulator: ogerin), -1.68.

A267I: the cAMP reporter score in data set [1] (pH 5.5) came out at 0.865; in data set [1] (pH 6), 0.634; in data set [1] (pH 6, modulator: ogerin), 1.39; in data set [1] (pH 6.5, modulator: ogerin) it was 1.42. In data set [2], the surface expression score came to 0.905.

Consider A267G, for which the cAMP reporter score in data set [1] (pH 5.5) was 0.73; in data set [1] (pH 6), -0.609; in data set [1] (pH 6, modulator: ogerin) it was 0.342; in data set [1] (pH 6.5, modulator: ogerin) it was -0.069. Also, the surface expression score in data set [2] is -0.374.

In the case of A267F, the cAMP reporter score in data set [1] (pH 5.5) worked out at 0.204; in data set [1] (pH 6) it was 0.84; in data set [1] (pH 6, modulator: ogerin), 0.433; in data set [1] (pH 6.5, modulator: ogerin), 0.832. Also, the surface expression score in data set [2] was -0.388.

For A267S, the cAMP reporter score in data set [1] (pH 5.5) was 0.008; in data set [1] (pH 6), -0.46; in data set [1] (pH 6, modulator: ogerin) it was 0.368; in data set [1] (pH 6.5, modulator: ogerin) it was -0.262. In addition, the surface expression score in data set [2] came to 0.159.

As to A267Y, the cAMP reporter score in data set [1] (pH 5.5) is -0.312; in data set [1] (pH 6, modulator: ogerin), 0.078; in data set [1] (pH 6.5, modulator: ogerin) it was -1.04.
